The campaign covered roughly 44,000 compounds. About 340 (0.77%) were called active. Another 5% or so got no clear call; they are omitted. The call rests on the fitted dose curve; in most records, active means well fitted inhibition curve with a large enough effect; inconclusive means small, poorly fitted or top-dose-only effect; inactive means flat fitted curve, though single readings scatter. Some of the results follow.
Assay: Acumen qHTS Assay for Inhibitors of the mTORC1 Signaling Pathway in MEF (Tsc2-/-, p53-/-) Cells: Sytravon;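 further: plate controls were DMSO for no effect and rapamycin for full effect; nearly all actives have a fitted effect of over 50% in size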
Details: phospho-rpS6 immunofluorescence/PI, 24 h; series mostly up to 38.3 µM; activity change, negative = inhibition: at the top concentration
How it was run: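 Compounds act on Tsc2-/-, p53-/- fibroblasts carrying an empty vector for 24 h before fixation and dual staining for phospho-S6 and DNA (propidium iodide). Values are percentages of cells above a rapamycin-defined pS6/PI threshold.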

SMILES | activity change, negative = inhibition
CCc1cccc(NC(=O)c2cc(S(=O)(=O)N3CCCCCC3)cn2C)c1 | inactive: 3.83%
COc1ccccc1N1CCN(C(=O)c2cc3c(s2)-c2ccccc2OC3)CC1 | inactive: -3.91%
CCc1ccccc1N1CC(c2nc3ccccc3n2CCCCOc2ccccc2OC)CC1=O (stereo not drawn) | inactive: -3.05%
Cc1noc(Cn2c(=O)c3cc4c(cc3n(CC(=O)Nc3ccc(C(C)C)cc3)c2=O)OCO4)n1 | inactive: -7.13%
CC(C)NC(=O)Cc1csc2nc(-c3ccccc3)cn12 | inactive: 0.426%
COc1cccc(-c2cc(C(F)(F)F)n3nc(-c4ccc(C)cc4)cc3n2)c1 | inactive: -8.2%
CNS(=O)(=O)c1ccc(NC(=O)c2nc3nc(C)cc(C(F)F)n3n2)cc1 | inactive: 6.32%
CCN(c1ccccc1)S(=O)(=O)c1ccc(NC(=O)c2cc(=O)c3c(C)cc(C)cc3o2)cc1 | inactive: -0.676%
O=C1CCc2cc(S(=O)(=O)NC(C(=O)Nc3ccc(F)cc3)c3ccccc3)ccc2N1 (stereo not drawn) | inactive: 3.35%
Cc1nc2nc(CNC(=O)c3cccc(F)c3)nn2c(C)c1CCC(=O)Nc1ccc(F)cc1 | inactive: -2.75%
CCOc1ccc(NS(=O)(=O)c2ccc3[nH]cc(C(=O)N4CCCC4)c(=O)c3c2)cc1 | inactive: 1.6%
COc1cc2c(cc1OC)C(COc1ccc(F)cc1)N(C(=O)C(C)C)CC2 (stereo not drawn) | inactive: 4.16%
O=c1n(Cc2ccccc2)nc2n1-c1ccccc1OC2 | inactive: 4.47%
CC(C)c1cnc2c(c1SCc1ccc([N+](=O)[O-])cc1)c(=O)n(C)c(=O)n2C | inactive: 0%
COc1ccc(S(=O)(=O)N(Cc2nc(-c3ccccc3)no2)C2CCCCC2)cc1 | inactive: -21.3%
Fc1ccc(Nc2nc(SCc3ccc(Cl)cc3)nc3ccccc23)cc1 | inactive: -6.44%
CNC(=O)C1CCC(Cn2c(=O)c3sccc3n(CC(=O)N3CCCCC3C)c2=O)CC1 (stereo not drawn) | inactive: -0.233%
Cc1cccc(-c2noc(-c3cccnc3NCc3ccccc3Cl)n2)c1 | inactive: 0.845%
COc1cc(C2CC(=O)N(c3ccc(C)c(Cl)c3)C3=C2C(=O)OC3)cc(OC)c1OC (stereo not drawn) | inactive: -0.698%
O=C(CCS(=O)(=O)c1ccc(Br)s1)Nc1c(F)cccc1F | inactive: -1.53%
COc1ccc(NC(=O)CCc2nc3cccnc3n2Cc2cccs2)c(OC)c1 | inactive: -1.18%
CCOC(=O)c1ccc(NC(=O)Nc2cccc(OCc3cc(=O)n4ccc(C)cc4n3)c2)cc1 | inactive: 8.9%
CCCCOc1ccc(NC(=O)CSc2ccc(C(=O)O)cn2)cc1 | inactive: -4.1%
Cc1cc(N2CCN(c3ccccc3F)CC2)n2cnnc2n1 | inactive: 0.8%

SMILES | activity change, negative = inhibition
CCCSc1ncc(Cl)c(C(=O)Nc2ccc(OC)cc2OC)n1 | inactive: -2.64%
COc1cccc(CNC(=O)CCn2ccc3cc(S(=O)(=O)N4CCCC4)ccc32)c1 | inactive: -0.0429%
CC(C)CCSc1nc2c(c(=O)n(C)c(=O)n2C)n1Cc1ccccc1Cl | inactive: 1.73%
COc1ccc(NC(=O)Nc2nnc(SCC(=O)Nc3cccc(C)c3C)s2)cc1 | inactive: -0.511%
CCn1cnc2c(=O)oc3ccc(S(=O)(=O)N4CCN(c5cc(C)ccc5C)CC4)cc3c21 | inactive: 2.4%
COc1ccc(C2=C(C)C(=O)N(Cc3ccc(C(=O)NCc4ccccc4C)cc3)S2(=O)=O)cc1 | inactive: -11.2%
O=S(=O)(NCCc1ccc(Cl)cc1)c1ccc(N2CCCCS2(=O)=O)cc1 | inactive: 10.7%
Cc1ccc(C2C=C(c3ccc(Cl)cc3)Nc3nc(NC(=O)CCC(=O)O)nn32)cc1 (stereo not drawn) | inactive: -11.7%
CCOc1ccc(NC(=O)CCn2c(-c3ccc(F)cc3)cc(C(C)=O)c2C)cc1 | inactive: 0.877%
O=C(CSc1nnc(-c2ccccc2)c(-c2ccccc2)n1)Nc1ccccc1Cl | inactive: 3.52%
CCCOc1ccc(C(=O)Nc2cc3nn(-c4ccc(CC)cc4)nc3cc2C)cc1 | inactive: -1.03%
COc1ccccc1OCCCn1c(-c2ccc(Cl)cc2)nc2ccccc2c1=O | inactive: 6.95%
CCC(C)Cn1c(COc2ccc(OC)cc2)nc2ccccc21 (stereo not drawn) | inactive: -6.14%
CCOC(=O)Cc1c(C)nc2c(-c3ccc(OC)c(OC)c3)c(C)nn2c1C | inactive: 7.41%
COc1ccc(-c2cc(C(=O)Nc3ccc(C#N)cc3)no2)cc1 | inactive: -12.7%
CCOC(=O)CC(NC(=O)c1cc2cc(OC)ccc2oc1=O)c1ccc(OC)cc1 (stereo not drawn) | inactive: 2.33%
Cc1cccc(C(=O)Nc2nnc(S(=O)(=O)N3CCC(C)CC3)s2)c1 | inactive: 9.38%
O=C(CCC(=O)N1CC2CCCN2c2ccccc21)NCc1ccccc1F (stereo not drawn) | inactive: -2.66%
Cc1cccc(OCC(=O)OCc2cc(=O)n3nc(C4CC4)sc3n2)c1 | inactive: -5.25%
O=C(C1CCN(S(=O)(=O)c2cccc3nonc23)CC1)N1CCN(c2ccc(F)cc2)CC1 | inactive: -6.67%
CCOc1ccc(CNC(=O)CCS(=O)(=O)c2cc3c4c(c2)CCN4C(=O)CC3)cc1 | inactive: 5.23%
CCOC(=O)c1c(C)oc2ncnc(Nc3ccc(CC)cc3)c12 | inactive: 5.9%
CC1CCN(C(=O)CN2CCSc3ccc(S(=O)(=O)N(C)C)cc32)CC1 | inactive: 7.26%
COc1ccc(/C=C/c2nc(-c3ccccc3O)n(-c3ccccc3)n2)cc1OC | inactive: 3.55%
